Reference: patent publication US20260034092A1, “BIOCIDAL COMPOSITION” (priority 2022, published 2026)

Tested on: Poliovirus ATCC VR-166, Adenovirus ATCC VR-1516, Norovirus ATCC TIB-71
Format: cell-based
Conditions: after 10 days of treatment on the sterile plastic container; calculated on the total of all study microorganisms

Compound: CC(O)C(=O)O (stereo not shown) [Treatment A, lactic acid]
- efficiency percentage, Virucide activity: 37.8%
